Test results as given in article PMC12275093.
No constants are given. Whether binding was seen depends on the method and setting. Binding seen in cells or lysates may run through a third protein. Some results given as binding are weak or reduced against the parent protein; the word gives no strength. For some of these results: Sequences can lack the tags named with a protein. Each block holds one binder with its values, some of them ahead of it.

How the values were obtained:
[1] = target: T1, endogenous PABPN1 (human (endogenous in HEK293T)) (UniProt Q86U42); test: co-IP; Myc-QKI-6-G118R and PABPN1 (Fig. 3H); antibody of the IP and cell line not stated
T1 sequence: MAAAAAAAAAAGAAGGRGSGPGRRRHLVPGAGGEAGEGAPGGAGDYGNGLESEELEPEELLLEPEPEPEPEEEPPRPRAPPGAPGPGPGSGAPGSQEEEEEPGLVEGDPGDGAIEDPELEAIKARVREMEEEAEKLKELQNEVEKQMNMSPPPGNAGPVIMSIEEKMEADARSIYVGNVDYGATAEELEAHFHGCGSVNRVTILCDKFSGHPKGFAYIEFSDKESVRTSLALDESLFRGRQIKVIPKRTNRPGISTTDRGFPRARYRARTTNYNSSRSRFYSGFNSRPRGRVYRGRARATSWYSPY

[2] = target: T1, endogenous PABPN1 (human (endogenous in HEK293T)); test: co-IP; anti-PABPN1 IP from lysate of HEK293T cells transfected with Myc-QKI-6 or Flag-DsRed-tagged QKI-6 fragments; blot for the tagged QKI
[3] = target: T2, PABPN1 fused at its C-terminus to split Venus (Myc-PABPN1-VN173 and Flag-PABPN1-VC155), Q86U42; test: split reporter; Venus BiFC (VN173 and VC155 at the C-terminus of PABPN1) in HEK293T cells, 24 h after transfection, fixed, confocal microscopy; details: remark: other sources report otherwise
T2 chain: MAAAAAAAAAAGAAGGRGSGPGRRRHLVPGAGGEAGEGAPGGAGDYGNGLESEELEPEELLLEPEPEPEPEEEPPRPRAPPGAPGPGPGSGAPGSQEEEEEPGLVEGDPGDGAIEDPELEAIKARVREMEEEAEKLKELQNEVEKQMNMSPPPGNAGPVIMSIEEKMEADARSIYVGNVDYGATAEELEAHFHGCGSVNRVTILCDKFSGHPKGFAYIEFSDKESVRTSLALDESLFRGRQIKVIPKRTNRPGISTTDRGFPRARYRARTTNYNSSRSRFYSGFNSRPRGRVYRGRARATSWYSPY

Myc-QKI-5 = target: T3, Myc-QKI-5 (UniProt Q96PU8); test: co-IP; anti-Myc IP from lysate of HEK293T cells overexpressing Myc-tagged QKI isoforms; blot for endogenous PABPN1
T3 sequence: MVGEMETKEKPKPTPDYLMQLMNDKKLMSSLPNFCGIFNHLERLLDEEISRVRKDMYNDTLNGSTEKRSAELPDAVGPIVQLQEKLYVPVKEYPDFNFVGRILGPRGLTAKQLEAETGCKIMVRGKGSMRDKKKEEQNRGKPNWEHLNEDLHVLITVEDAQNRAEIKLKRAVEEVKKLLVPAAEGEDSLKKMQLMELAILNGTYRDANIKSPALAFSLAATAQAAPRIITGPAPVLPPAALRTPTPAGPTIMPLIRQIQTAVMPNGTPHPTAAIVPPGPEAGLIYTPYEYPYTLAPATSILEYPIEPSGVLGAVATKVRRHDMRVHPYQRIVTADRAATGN

Myc-QKI-6 = target: T4, Myc-QKI-6 (UniProt Q96PU8); test: as above
T4 sequence: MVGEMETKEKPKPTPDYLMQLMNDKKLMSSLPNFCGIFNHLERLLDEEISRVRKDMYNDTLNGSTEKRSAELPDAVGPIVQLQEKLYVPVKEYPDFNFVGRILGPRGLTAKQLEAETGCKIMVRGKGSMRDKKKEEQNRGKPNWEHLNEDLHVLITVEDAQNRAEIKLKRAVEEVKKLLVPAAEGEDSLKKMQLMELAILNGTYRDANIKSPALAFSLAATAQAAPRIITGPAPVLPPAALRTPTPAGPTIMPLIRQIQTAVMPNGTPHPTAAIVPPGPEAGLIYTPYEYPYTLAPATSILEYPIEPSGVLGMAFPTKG

Myc-QKI-7 = target: T5, Myc-QKI-7 (UniProt Q96PU8); test: as above
T5 sequence: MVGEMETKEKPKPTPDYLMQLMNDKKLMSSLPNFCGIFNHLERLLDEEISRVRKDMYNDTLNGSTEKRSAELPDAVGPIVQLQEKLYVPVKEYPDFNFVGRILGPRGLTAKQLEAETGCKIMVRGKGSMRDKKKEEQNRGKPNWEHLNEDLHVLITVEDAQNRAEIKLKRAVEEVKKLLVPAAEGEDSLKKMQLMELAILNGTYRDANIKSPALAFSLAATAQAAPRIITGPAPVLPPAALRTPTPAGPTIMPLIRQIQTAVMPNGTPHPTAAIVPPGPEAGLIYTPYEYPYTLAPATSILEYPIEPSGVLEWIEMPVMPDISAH

[4] = target: T1, endogenous PABPN1 (human (endogenous in HEK293T)); test: co-IP; IP of endogenous PABPN1, blot for endogenous QKI; with and without RNase treatment; cell line not stated
Myc-PABPN1-WT = target: T6, Myc-PABPN1-WT (UniProt Q86U42); test: co-IP; anti-Myc IP from lysate of HEK293T cells overexpressing Myc-PABPN1-WT or Myc-PABPN1-AP; blot for endogenous QKI
T6 sequence: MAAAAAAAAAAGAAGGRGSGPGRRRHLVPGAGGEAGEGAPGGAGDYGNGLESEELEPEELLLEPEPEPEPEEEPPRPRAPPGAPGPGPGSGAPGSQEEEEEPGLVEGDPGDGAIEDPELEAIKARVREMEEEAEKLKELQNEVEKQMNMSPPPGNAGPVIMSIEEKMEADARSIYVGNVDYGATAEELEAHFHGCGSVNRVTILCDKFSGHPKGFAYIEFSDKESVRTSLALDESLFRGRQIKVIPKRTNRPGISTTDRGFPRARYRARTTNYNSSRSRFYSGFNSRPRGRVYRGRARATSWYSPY

B1: Myc-QKI-6-G118R (protein, UniProt Q96PU8-9 1-319)
chain: MVGEMETKEKPKPTPDYLMQLMNDKKLMSSLPNFCGIFNHLERLLDEEISRVRKDMYNDTLNGSTEKRSAELPDAVGPIVQLQEKLYVPVKEYPDFNFVGRILGPRGLTAKQLEAETRCKIMVRGKGSMRDKKKEEQNRGKPNWEHLNEDLHVLITVEDAQNRAEIKLKRAVEEVKKLLVPAAEGEDSLKKMQLMELAILNGTYRDANIKSPALAFSLAATAQAAPRIITGPAPVLPPAALRTPTPAGPTIMPLIRQIQTAVMPNGTPHPTAAIVPPGPEAGLIYTPYEYPYTLAPATSILEYPIEPSGVLGMAFPTKG
- binding [1]: binds weakly

B3: Flag-DsRed-QKI-6 ΔC (domain or fragment, UniProt Q96PU8-9 1-311)
chain: MVGEMETKEKPKPTPDYLMQLMNDKKLMSSLPNFCGIFNHLERLLDEEISRVRKDMYNDTLNGSTEKRSAELPDAVGPIVQLQEKLYVPVKEYPDFNFVGRILGPRGLTAKQLEAETGCKIMVRGKGSMRDKKKEEQNRGKPNWEHLNEDLHVLITVEDAQNRAEIKLKRAVEEVKKLLVPAAEGEDSLKKMQLMELAILNGTYRDANIKSPALAFSLAATAQAAPRIITGPAPVLPPAALRTPTPAGPTIMPLIRQIQTAVMPNGTPHPTAAIVPPGPEAGLIYTPYEYPYTLAPATSILEYPIEPSGVL
- binding [2]: binds

B5: Flag-DsRed-QKI-6 ΔC&PY-rich (domain or fragment, UniProt Q96PU8-9 1-205)
chain: MVGEMETKEKPKPTPDYLMQLMNDKKLMSSLPNFCGIFNHLERLLDEEISRVRKDMYNDTLNGSTEKRSAELPDAVGPIVQLQEKLYVPVKEYPDFNFVGRILGPRGLTAKQLEAETGCKIMVRGKGSMRDKKKEEQNRGKPNWEHLNEDLHVLITVEDAQNRAEIKLKRAVEEVKKLLVPAAEGEDSLKKMQLMELAILNGTYR
- binding [2]: binds

B7: endogenous PABPN1 (protein, UniProt Q86U42 1-306)
chain: MAAAAAAAAAAGAAGGRGSGPGRRRHLVPGAGGEAGEGAPGGAGDYGNGLESEELEPEELLLEPEPEPEPEEEPPRPRAPPGAPGPGPGSGAPGSQEEEEEPGLVEGDPGDGAIEDPELEAIKARVREMEEEAEKLKELQNEVEKQMNMSPPPGNAGPVIMSIEEKMEADARSIYVGNVDYGATAEELEAHFHGCGSVNRVTILCDKFSGHPKGFAYIEFSDKESVRTSLALDESLFRGRQIKVIPKRTNRPGISTTDRGFPRARYRARTTNYNSSRSRFYSGFNSRPRGRVYRGRARATSWYSPY
- binding (Myc-QKI-5): binds
- binding (Myc-QKI-6): binds
- binding (Myc-QKI-7): binds

B8: endogenous QKI (protein, UniProt Q96PU8 1-341)
chain: MVGEMETKEKPKPTPDYLMQLMNDKKLMSSLPNFCGIFNHLERLLDEEISRVRKDMYNDTLNGSTEKRSAELPDAVGPIVQLQEKLYVPVKEYPDFNFVGRILGPRGLTAKQLEAETGCKIMVRGKGSMRDKKKEEQNRGKPNWEHLNEDLHVLITVEDAQNRAEIKLKRAVEEVKKLLVPAAEGEDSLKKMQLMELAILNGTYRDANIKSPALAFSLAATAQAAPRIITGPAPVLPPAALRTPTPAGPTIMPLIRQIQTAVMPNGTPHPTAAIVPPGPEAGLIYTPYEYPYTLAPATSILEYPIEPSGVLGAVATKVRRHDMRVHPYQRIVTADRAATGN
- binding [4]: binds
- binding (Myc-PABPN1-WT): binds

Continued, values first:

- binding [2]: binds
B2: Myc-QKI-6 (protein, UniProt Q96PU8-9 1-319)
chain: MVGEMETKEKPKPTPDYLMQLMNDKKLMSSLPNFCGIFNHLERLLDEEISRVRKDMYNDTLNGSTEKRSAELPDAVGPIVQLQEKLYVPVKEYPDFNFVGRILGPRGLTAKQLEAETGCKIMVRGKGSMRDKKKEEQNRGKPNWEHLNEDLHVLITVEDAQNRAEIKLKRAVEEVKKLLVPAAEGEDSLKKMQLMELAILNGTYRDANIKSPALAFSLAATAQAAPRIITGPAPVLPPAALRTPTPAGPTIMPLIRQIQTAVMPNGTPHPTAAIVPPGPEAGLIYTPYEYPYTLAPATSILEYPIEPSGVLGMAFPTKG

- binding [2]: no binding
B4: Flag-DsRed-QKI-6 ΔC&KH (domain or fragment, UniProt Q96PU8-9)
chain: MVGEMETKEKPKPTPDYLMQLMNDKKLMSSLPNFCGIFNHLERLLDEEISRVRKDMYNDTLNGSTEKRSAELPDAVGPIVQAAEGEDSLKKMQLMELAILNGTYRDANIKSPALAFSLAATAQAAPRIITGPAPVLPPAALRTPTPAGPTIMPLIRQIQTAVMPNGTPHPTAAIVPPGPEAGLIYTPYEYPYTLAPATSILEYPIEPSGVL

- binding [3]: binds
B6: PABPN1 fused at its C-terminus to split Venus (Myc-PABPN1-VN173 and Flag-PABPN1-VC155), Q86U42 1-306 (protein)
chain: MAAAAAAAAAAGAAGGRGSGPGRRRHLVPGAGGEAGEGAPGGAGDYGNGLESEELEPEELLLEPEPEPEPEEEPPRPRAPPGAPGPGPGSGAPGSQEEEEEPGLVEGDPGDGAIEDPELEAIKARVREMEEEAEKLKELQNEVEKQMNMSPPPGNAGPVIMSIEEKMEADARSIYVGNVDYGATAEELEAHFHGCGSVNRVTILCDKFSGHPKGFAYIEFSDKESVRTSLALDESLFRGRQIKVIPKRTNRPGISTTDRGFPRARYRARTTNYNSSRSRFYSGFNSRPRGRVYRGRARATSWYSPY

- binding [2]: binds
B9: Flag-DsRed-QKI-6 ΔC&QUA1 (domain or fragment, UniProt Q96PU8-9 82-311)
chain: LQEKLYVPVKEYPDFNFVGRILGPRGLTAKQLEAETGCKIMVRGKGSMRDKKKEEQNRGKPNWEHLNEDLHVLITVEDAQNRAEIKLKRAVEEVKKLLVPAAEGEDSLKKMQLMELAILNGTYRDANIKSPALAFSLAATAQAAPRIITGPAPVLPPAALRTPTPAGPTIMPLIRQIQTAVMPNGTPHPTAAIVPPGPEAGLIYTPYEYPYTLAPATSILEYPIEPSGVL

- binding [2]: binds
B10: Flag-DsRed-QKI-6 ΔC&QUA2 (domain or fragment, UniProt Q96PU8-9)
chain: MVGEMETKEKPKPTPDYLMQLMNDKKLMSSLPNFCGIFNHLERLLDEEISRVRKDMYNDTLNGSTEKRSAELPDAVGPIVQLQEKLYVPVKEYPDFNFVGRILGPRGLTAKQLEAETGCKIMVRGKGSMRDKKKEEQNRGKPNWEHLNEDLHVLITVEDAQNRAEIKLKRAVEEVKKLLVPDANIKSPALAFSLAATAQAAPRIITGPAPVLPPAALRTPTPAGPTIMPLIRQIQTAVMPNGTPHPTAAIVPPGPEAGLIYTPYEYPYTLAPATSILEYPIEPSGVL
